# The other results are listed elsewhere or left out.
# B1: SP16664B-bot-474-25-474 (Bacteroides ovatus) (protein)
# chain: CEEDIEIGNKIDESSYLASTQLSGLLLDENTNKNSSVIELRNNEYSTNVVFRLSKLPQKGVDVQIAVEESYAAIYNTIHETDFEVFPAANVKIANNGTFVLAPDDKVTPSVKVTLTAFDGMEEDKTYIVPLTVTSSTEGVTFTETSKHMVLLVQDYRNKPNTNKGEDAVQTVLYFEVNDTNPLNALEFLTESGKYFFDHIVLFAANINWDPEKQRVYLANNENVQFLLDNNDKYLQPLRKAGMKIIISILGNHDEAGVAQLSDMGAREFARELAAYCRAYNLDGVAFDDEYSNSPDLSNPWLASPSAYAGSRLMYECKAVMPEKIVSLYNLGNMYSSSLQVIDGIEPGQYCDYAVADYGGAAGPGTGMTLKQCAGMSIELRRGSGNSSESTARSRKEAGYGYYMFFALDPSLYGSQVYRCQSVCKGLYDETLVYPSYYYKKNSTEREAIN
# Tests used:
# Test in all cases: glycan array binding signal (z-score within array); higher = stronger binding
# Settings in all cases: glycan notation: IUPAC condensed, linker removed
# Gal(a1-3)Gal = target: Gal(a1-3)Gal
# In short: (§1)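 The binding signal is a Z-score computed within each array and averaged over linkers. Arrays of the same protein sequence at different concentrations or buffers were also averaged together. Data originate from 3228 arrays in the Consortium for Functional Glycomics database, kept only where the protein sequence was available.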
# Gal(a1-3)Gal(b1-3)GlcNAc = target: Gal(a1-3)Gal(b1-3)GlcNAc
# In short: as §1
# [1] = target: Gal(a1-3)Gal(b1-3)GlcNAc(b1-2)Man
# In short: as §1
# [2] = target: Gal(a1-3)Gal(b1-3)GlcNAc(b1-2)Man(a1-3)[Gal(a1-3)Gal(b1-3)GlcNAc(b1-2)Man(a1-6)]Man(b1-4)GlcNAc(b1-4)GlcNAc
# In short: as §1
# [3] = target: Gal(a1-3)Gal(b1-3)GlcNAc(b1-3)GalNAc
# In short: as §1
# [4] = target: Gal(a1-3)Gal(b1-3)GlcNAc(b1-6)GalNAc
# In short: as §1
# [5] = target: Gal(a1-3)Gal(b1-3)[Fuc(a1-4)]GlcNAc(b1-2)Man(a1-3)[Gal(a1-3)Gal(b1-3)[Fuc(a1-4)]GlcNAc(b1-2)Man(a1-6)]Man(b1-4)GlcNAc(b1-4)GlcNAc
# In short: as §1
# Gal(a1-3)Gal(b1-4)Glc = target: Gal(a1-3)Gal(b1-4)Glc
# In short: as §1
# Gal(a1-3)Gal(b1-4)GlcNAc = target: Gal(a1-3)Gal(b1-4)GlcNAc
# In short: as §1
# [6] = target: Gal(a1-3)Gal(b1-4)GlcNAc(b1-2)Man
# In short: as §1
# [7] = target: Gal(a1-3)Gal(b1-4)GlcNAc(b1-2)Man(a1-3)[Gal(a1-3)Gal(b1-4)GlcNAc(b1-2)Man(a1-6)]Man(b1-4)GlcNAc(b1-4)GlcNAc
# In short: as §1
# [8] = target: Gal(a1-3)Gal(b1-4)GlcNAc(b1-3)GalNAc
# In short: as §1
# [9] = target: Gal(a1-3)Gal(b1-4)GlcNAc(b1-6)GalNAc
# In short: as §1
# [10] = target: Gal(a1-3)Gal(b1-4)[Fuc(a1-3)]GlcNAc
# In short: as §1
# [11] = target: Gal(a1-3)Gal(b1-4)[Fuc(a1-3)]GlcNAc(b1-2)Man(a1-3)[Gal(a1-3)Gal(b1-4)[Fuc(a1-3)]GlcNAc(b1-2)Man(a1-6)]Man(b1-4)GlcNAc(b1-4)GlcNAc
# In short: as §1
# Gal(a1-3)GalNAc = target: Gal(a1-3)GalNAc
# In short: as §1
# [12] = target: Gal(a1-3)[Gal(a1-4)]Gal(b1-4)GlcNAc
# In short: as §1
# [13] = target: Gal(a1-4)Gal(b1-3)GlcNAc(b1-2)Man(a1-3)[Gal(a1-4)Gal(b1-3)GlcNAc(b1-2)Man(a1-6)]Man(b1-4)GlcNAc(b1-4)GlcNAc
# In short: as §1
# Gal(a1-4)Gal(b1-4)Glc = target: Gal(a1-4)Gal(b1-4)Glc
# In short: as §1
# Gal(a1-4)Gal(b1-4)GlcNAc = target: Gal(a1-4)Gal(b1-4)GlcNAc
# In short: as §1
# [14] = target: Gal(a1-4)Gal(b1-4)GlcNAc(b1-2)Man(a1-3)[Gal(a1-4)Gal(b1-4)GlcNAc(b1-2)Man(a1-6)]Man(b1-4)GlcNAc(b1-4)GlcNAc
# In short: as §1
# [15] = target: Gal(a1-4)Gal(b1-4)GlcNAc(b1-3)Gal(b1-4)Glc
# In short: as §1
# Gal(a1-4)GlcNAc = target: Gal(a1-4)GlcNAc
# In short: as §1
# Gal(a1-6)Glc = target: Gal(a1-6)Glc
# In short: as §1
# Gal(b1-2)Gal = target: Gal(b1-2)Gal
# In short: as §1
# Gal(b1-3)Gal = target: Gal(b1-3)Gal
# In short: as §1
# Gal(b1-3)Gal(b1-4)GlcNAc = target: Gal(b1-3)Gal(b1-4)GlcNAc
# In short: as §1
# Gal(b1-3)GalNAc = target: Gal(b1-3)GalNAc
# In short: as §1
# [16] = target: Gal(b1-3)GalNAc(a1-3)[Fuc(a1-2)]Gal(b1-4)Glc
# In short: as §1
# [17] = target: Gal(b1-3)GalNAc(a1-3)[Fuc(a1-2)]Gal(b1-4)GlcNAc
# In short: as §1
# Gal(b1-3)GalNAc(b1-3)Gal = target: Gal(b1-3)GalNAc(b1-3)Gal
# In short: as §1
# [18] = target: Gal(b1-3)GalNAc(b1-3)Gal(a1-4)Gal(b1-4)Glc
# In short: as §1
# [19] = target: Gal(b1-3)GalNAc(b1-4)Gal(b1-4)Glc
# In short: as §1
# [20] = target: Gal(b1-3)GalNAc(b1-4)[Neu5Ac(a2-3)]Gal(b1-4)Glc
# In short: as §1
# Gal(b1-3)GlcNAc = target: Gal(b1-3)GlcNAc
# In short: as §1
# [21] = target: Gal(b1-3)GlcNAc(a1-3)Gal(b1-4)GlcNAc
# In short: as §1
# [22] = target: Gal(b1-3)GlcNAc(a1-6)Gal(b1-4)GlcNAc
# In short: as §1
# Gal(b1-3)GlcNAc(b1-2)Man = target: Gal(b1-3)GlcNAc(b1-2)Man
# In short: as §1
binder,measurement,setting,value
B1,glycan array binding signal (z-score),Gal(a1-3)Gal,-0.094
same,glycan array binding signal (z-score),Gal(a1-3)Gal(b1-3)GlcNAc,-0.027
same,glycan array binding signal (z-score),[1],-0.189
same,glycan array binding signal (z-score),[2],-0.011
same,glycan array binding signal (z-score),[3],0.023
same,glycan array binding signal (z-score),[4],0.049
same,glycan array binding signal (z-score),[5],1.43
same,glycan array binding signal (z-score),Gal(a1-3)Gal(b1-4)Glc,-0.427
same,glycan array binding signal (z-score),Gal(a1-3)Gal(b1-4)GlcNAc,-0.691
same,glycan array binding signal (z-score),[6],-0.237
same,glycan array binding signal (z-score),[7],2.23
same,glycan array binding signal (z-score),[8],0.386
same,glycan array binding signal (z-score),[9],0.21
same,glycan array binding signal (z-score),[10],-0.366
same,glycan array binding signal (z-score),[11],1.65
same,glycan array binding signal (z-score),Gal(a1-3)GalNAc,-0.504
same,glycan array binding signal (z-score),[12],-0.405
same,glycan array binding signal (z-score),[13],1.04
same,glycan array binding signal (z-score),Gal(a1-4)Gal(b1-4)Glc,0.803
same,glycan array binding signal (z-score),Gal(a1-4)Gal(b1-4)GlcNAc,-0.079
same,glycan array binding signal (z-score),[14],0.187
same,glycan array binding signal (z-score),[15],-0.137
same,glycan array binding signal (z-score),Gal(a1-4)GlcNAc,-0.657
same,glycan array binding signal (z-score),Gal(a1-6)Glc,-0.124
same,glycan array binding signal (z-score),Gal(b1-2)Gal,0.102
same,glycan array binding signal (z-score),Gal(b1-3)Gal,-0.262
same,glycan array binding signal (z-score),Gal(b1-3)Gal(b1-4)GlcNAc,-0.352
same,glycan array binding signal (z-score),Gal(b1-3)GalNAc,-0.34
same,glycan array binding signal (z-score),[16],-0.096
same,glycan array binding signal (z-score),[17],-0.291
same,glycan array binding signal (z-score),Gal(b1-3)GalNAc(b1-3)Gal,-0.2
same,glycan array binding signal (z-score),[18],-0.467
same,glycan array binding signal (z-score),[19],-0.409
same,glycan array binding signal (z-score),[20],-0.167
same,glycan array binding signal (z-score),Gal(b1-3)GlcNAc,-0.12
same,glycan array binding signal (z-score),[21],-0.335
same,glycan array binding signal (z-score),[22],-0.477
same,glycan array binding signal (z-score),Gal(b1-3)GlcNAc(b1-2)Man,0.003
